Here are results for 54 compounds from article PMC4336329 (PLoS ONE, 2015).

In all, about 310,000 compounds went through this assay and about 2,200 (0.71%) showed an effect of 50% or more. The effect is printed as a negative number. The list shows a part of the results.

In the assay the target is human ether-à-go-go-related gene (hERG) potassium channel (human, UniProt Q12809). The experiment in a line: primary screen, population patch clamp on CHO cells stably expressing hERG.
human ether-à-go-go-related gene (hERG) potassium channel, sequence (Q12809 whole entry, looked up): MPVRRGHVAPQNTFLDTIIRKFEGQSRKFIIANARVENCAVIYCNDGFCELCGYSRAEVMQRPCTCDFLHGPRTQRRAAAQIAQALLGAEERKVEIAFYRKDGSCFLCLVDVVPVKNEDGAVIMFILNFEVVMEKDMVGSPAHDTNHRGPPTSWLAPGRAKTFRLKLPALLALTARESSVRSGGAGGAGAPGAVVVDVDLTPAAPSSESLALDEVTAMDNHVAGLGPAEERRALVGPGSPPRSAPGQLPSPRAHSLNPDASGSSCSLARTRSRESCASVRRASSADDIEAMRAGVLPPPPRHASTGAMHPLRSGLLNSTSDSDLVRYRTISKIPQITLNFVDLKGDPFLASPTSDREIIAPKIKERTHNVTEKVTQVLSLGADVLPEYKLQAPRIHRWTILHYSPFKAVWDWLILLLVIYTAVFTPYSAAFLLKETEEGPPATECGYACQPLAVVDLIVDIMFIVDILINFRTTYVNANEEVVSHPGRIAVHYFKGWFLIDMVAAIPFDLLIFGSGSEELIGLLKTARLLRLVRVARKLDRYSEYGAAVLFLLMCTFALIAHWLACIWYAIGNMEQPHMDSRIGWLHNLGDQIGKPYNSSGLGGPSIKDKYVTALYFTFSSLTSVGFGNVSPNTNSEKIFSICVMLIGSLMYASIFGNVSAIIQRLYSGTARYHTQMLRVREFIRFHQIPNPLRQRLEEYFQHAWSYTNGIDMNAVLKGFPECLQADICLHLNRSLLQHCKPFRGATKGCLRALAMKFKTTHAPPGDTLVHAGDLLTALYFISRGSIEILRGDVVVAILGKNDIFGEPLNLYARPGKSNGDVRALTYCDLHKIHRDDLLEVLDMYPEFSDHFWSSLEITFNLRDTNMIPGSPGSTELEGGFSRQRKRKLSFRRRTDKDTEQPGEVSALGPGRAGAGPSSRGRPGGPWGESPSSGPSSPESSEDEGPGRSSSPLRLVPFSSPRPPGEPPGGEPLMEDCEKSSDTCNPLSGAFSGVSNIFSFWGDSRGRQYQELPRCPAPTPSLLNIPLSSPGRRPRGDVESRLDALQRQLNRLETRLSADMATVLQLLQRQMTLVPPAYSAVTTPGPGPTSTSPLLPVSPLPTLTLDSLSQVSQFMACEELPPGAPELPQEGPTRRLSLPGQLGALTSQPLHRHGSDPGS
For the compound `O=C(COc1cccc(Cl)c1)NNC(=S)Nc1ccccc1`, the “hERG current change (%, negative = inhibition) at 1uM” value was found to be 10.1%.
On to `CCOC(=O)c1ccc(-c2cc(C)no2)[nH]1`, for which the “hERG current change (%, negative = inhibition) at 1uM” value was 8.66%.
As for `Cc1ccccc1CC1(CO)CCCN(Cc2ccn[nH]2)C1` (stereo not drawn), the “hERG current change (%, negative = inhibition) at 1uM” value worked out at 8.62%.
With `Cn1c(=O)c2c(nc(N3CCCCCC3)n2Cc2cccc3ccccc23)n(C)c1=O` the figure was 17.1%.
The result for `O=C(NCCCn1ccnc1)c1cc2cc([N+](=O)[O-])ccc2oc1=O` reads -14.2%; that for `CCn1c(=O)c(=O)n(CC)c2cc(S(=O)(=O)Nc3cccc(OC)c3)ccc21`, 12%.
With `C=CCNC(=S)N/N=C/c1ccc(C)c([N+](=O)[O-])c1` the figure was 13.5%; with `N#CC1(NC(=O)CSc2nc3ccc([N+](=O)[O-])cc3s2)CCCCC1`, -18.4%.
For `c1ccc(C2(Cn3ccc4ccccc43)OCCO2)cc1`, the “hERG current change (%, negative = inhibition) at 1uM” value is given as 8.29%.
The result for `COc1ccc(CCNCc2sccc2C)cc1.Cl` reads 3.21%; that for `CCC(C)NC(=O)CS(=O)Cc1nc(-c2cccc(C)c2)oc1C` (stereo not drawn), 14.8%.
The result for `CCC(C(=O)Nc1ccc(C)cc1)c1ccccc1` (stereo not drawn) reads 7.21%; that for `[2H]C([2H])(CCOS(N)(=O)=O)c1ccccc1`, 4.94%.
With `CCOC(=O)C1CCCN(C(=O)c2ccc([N+](=O)[O-])c(C)c2)C1` (stereo not drawn) the figure was -0.659%; with `Cc1cc(C(C)(C)C)ccc1OCC(=O)N/N=C\c1c(C)n(C)n(-c2ccccc2)c1=O`, -12.5%; with `Cn1nc(C(=O)NCc2ccccc2)cc1C(=O)NCc1ccccc1`, 16.9%.
With `COCCN(CCOC)C(=O)COC(=O)c1ccc(Cl)c(S(=O)(=O)N(C)c2ccccc2)c1`, the “hERG current change (%, negative = inhibition) at 1uM” value is recorded as 5.09%.
`COc1ccc(NC(=O)CSCC(=O)N2CCN(c3cccc(C(F)(F)F)c3)CC2)cc1`: the “hERG current change (%, negative = inhibition) at 1uM” value was determined as 3.36%.
The result for `CCCCC1=CC2=C(c3ccco3)C(=O)C(C)(OC(=O)c3ccc(OC)cc3)C(=O)C2=CN1CC(C)C` (stereo not drawn) reads 13.7%; that for `COc1cc(NC(=O)[C@H](C)NC(=O)N2CCn3c2nc2ccccc23)cc(OC)c1`, 2.53%; that for `CCCSc1ccc([C@H]2N[C@@](C)(C(=O)OC)[C@H]3C(=O)N(C)C(=O)[C@@H]23)cc1OC.O=C(O)C(F)(F)F`, 7.32%.
Take `CCCCCn1c(=O)[nH]c2cc(C(=O)N3CCN(Cc4ccc5c(c4)OCO5)CC3)ccc2c1=O`: the “hERG current change (%, negative = inhibition) at 1uM” value is listed as 8.6%.
With `Cc1ccc(S(=O)(=O)N2CCN(C(=O)N(C)C)CC2)cc1` the figure was 19.9%; with `CN(CC(=O)Nc1ccc(F)c(F)c1F)C(=O)c1ccc2c(c1)OCCO2`, 8.45%; with `COc1ccc(CNC(=O)CCn2c(=O)oc3ccccc32)cc1`, 12.2%.
With `COc1cccc(C(=O)NC(=S)Nc2ccc(N(C)C)cc2)c1` the figure was 8.65%; with `NC(=O)Cn1c2[n+](c3ccccc31)CC(O)CS2.[Br-]` (stereo not drawn), 15.6%.
The result for `CC(C)CC1NC2(C(=O)N(C)c3ccccc32)C2C(=O)N(C(C)C)C(=O)C12` (stereo not drawn) reads 7.02%; that for `Cc1ccc([C@@H]2C[C@H]3CN(Cc4cccc(Cl)c4)C(=O)[C@]34CCCN24)o1`, -0.451%; that for `COc1cc(N(C)C)c(NC(C)=O)cc1C(=O)O`, 20.6%.
On to `O=[N+]([O-])c1ccc(N2CCN(C(=S)Nc3cccc(F)c3)CC2)cc1`, for which the “hERG current change (%, negative = inhibition) at 1uM” value was -26.9%.
With `COc1ccc(-c2cc(C(=O)N3CCOCC3)no2)cc1OC` the figure was -2.34%; with `O=C(COC(=O)CNC(=O)c1ccccc1)Nc1ccccc1Cl`, 11.4%.
The result for `CCC(=O)N1CCc2cc(Br)cc(S(=O)(=O)NCc3ccco3)c21` reads -2.36%; that for `COc1ccc(NC(=O)c2cccc(S(=O)(=O)Nc3ccc(Br)cc3)c2)cn1`, 11.3%.
The result for `O=C(COc1ccc(Cl)cc1)NCc1nnc2c3ccccc3c(-c3ccccc3)nn12` reads -2.65%.
Consider `Cn1c(=O)c2c(nc(Br)n2CCCc2ccccc2)n(C)c1=O`, for which the “hERG current change (%, negative = inhibition) at 1uM” value worked out at 6.47%.
With `CCOc1ccc(C(=O)N2CCCC(c3nc(-c4cccs4)no3)C2)cc1` (stereo not drawn) the figure was 9.92%; with `Cc1ccc(Cc2cnc(NC(=O)CN3CCOCC3)s2)cc1Cl`, -3.09%; with `Cn1c(N)c(C(=O)COC(=O)CCC2CCCCC2)c(=O)n(C)c1=O`, -25.3%.
The result for `Cc1cc(C[n+]2cc(Cl)ccc2N)c2ncccc2c1.[Br-]` reads -14%; that for `COc1ccc(C(C)(C)C)cc1NC(=O)c1ccoc1C`, 1.62%.
On to `NS(=O)(=O)c1ccc(NCc2cc(Cl)ccc2OCc2ccc(F)cc2)cc1`, for which the “hERG current change (%, negative = inhibition) at 1uM” value is 10%.
Turning to `O=C(CSc1ccc(Cl)cc1)N1CCC(c2nc3ccccc3s2)CC1`, the “hERG current change (%, negative = inhibition) at 1uM” value was -4.9%.
With `NC1=NC(=O)/C(=C/c2ccc(Cl)cc2Cl)S1` the figure was 8.74%.
The result for `CCN1CC(c2ccccc2)C(c2ccc(Cl)cc2)=N1` (stereo not drawn) reads -5.14%.
The result for `COC(=O)C1=C(C)NC(=O)NC1c1ccc(OC(=O)c2ccco2)cc1` (stereo not drawn) reads 7.7%; that for `CC(=O)OC[C@H]1O[C@@H](O/N=C/[C@@H](C)[C@H](OCc2ccccc2)C(C)C)[C@H](OC(C)=O)[C@@H](OC(C)=O)[C@@H]1OC(C)=O`, 5.94%.
`CCCS(=O)(=O)N1CCN(Cc2ccc([N+](=O)[O-])cc2)CC1.O=C(O)C(=O)O`: the “hERG current change (%, negative = inhibition) at 1uM” value is on record as -5.35%.
For the compound `CN(C(=O)COC(=O)c1ccc(Cl)cc1N)C1CCCCC1`, the “hERG current change (%, negative = inhibition) at 1uM” value is given as 8.95%.
The result for `N/C(=N\OC(=O)c1cccc(Cn2cc(C(F)(F)F)ccc2=O)c1)c1ccccc1` reads 8.43%; that for `CC(C)c1nnc(SCC(=O)NCc2ccc3c(c2)OCO3)n1C`, -0.917%.
The result for `CCC(=O)Nc1nonc1-c1nc2ccccc2n1Cc1cccc2ccccc12` reads 10.5%.
With `CCCCc1ccc(NC(=O)CSC2=NN3CCCC(=O)N=C3S2)cc1` the figure was 4.68%.
